IC50 data for 35 molecules are collected here from patent US8129380B2, “Phthalazinone derivatives” (AstraZeneca AB, priority 2008, dated 2012).

In this test the target is Mammalian PARP, isolated from Hela cell nuclear extract (Homo sapiens, UniProt P09874). Description: PARP inhibitory action (FlashPlate 3H-NAD assay). It counts as biochemical. The following applies: 30° C., NAD 5 μM. How it is done: In order to assess the inhibitory action of the compounds, the following assay was used to determine IC50 values.
The total assay volume per well was 40 μl.
After 10 minutes incubation at 30° C. the reactions were initiated by the addition of a 10 μl reaction mixture, containing NAD (5 μM), ^3H-NAD and 30 mer double stranded DNA-oligos. Designated positive and negative reaction wells were done in combination with compound wells (unknowns) in order to calculate % enzyme activities. The plates were then shaken for 2 minutes and incubated at 30° C. for 45 minutes.
Following the incubation, the reactions were quenched by the addition of 50 μl 30% acetic acid to each well. The plates were then shaken for 1 hour at room temperature.
The plates were transferred to a TopCount NXT (TRADE MARK) (Packard, UK) for scintillation counting. Values recorded are counts per minute (cpm) following a 30 second counting of each well.
The % enzyme activity for each compound is then calculated using the following equation: […]
IC50 values (the concentration at which 50% of the enzyme activity is inhibited) were calculated, which are determined over a range of different concentrations, normally from 10 μM down to 0.001 μM. Such IC50 values are used as comparative values to identify increased compound potencies.

Structures are written as SMILES.

Chain of UniProt P09874 (P09874 whole entry): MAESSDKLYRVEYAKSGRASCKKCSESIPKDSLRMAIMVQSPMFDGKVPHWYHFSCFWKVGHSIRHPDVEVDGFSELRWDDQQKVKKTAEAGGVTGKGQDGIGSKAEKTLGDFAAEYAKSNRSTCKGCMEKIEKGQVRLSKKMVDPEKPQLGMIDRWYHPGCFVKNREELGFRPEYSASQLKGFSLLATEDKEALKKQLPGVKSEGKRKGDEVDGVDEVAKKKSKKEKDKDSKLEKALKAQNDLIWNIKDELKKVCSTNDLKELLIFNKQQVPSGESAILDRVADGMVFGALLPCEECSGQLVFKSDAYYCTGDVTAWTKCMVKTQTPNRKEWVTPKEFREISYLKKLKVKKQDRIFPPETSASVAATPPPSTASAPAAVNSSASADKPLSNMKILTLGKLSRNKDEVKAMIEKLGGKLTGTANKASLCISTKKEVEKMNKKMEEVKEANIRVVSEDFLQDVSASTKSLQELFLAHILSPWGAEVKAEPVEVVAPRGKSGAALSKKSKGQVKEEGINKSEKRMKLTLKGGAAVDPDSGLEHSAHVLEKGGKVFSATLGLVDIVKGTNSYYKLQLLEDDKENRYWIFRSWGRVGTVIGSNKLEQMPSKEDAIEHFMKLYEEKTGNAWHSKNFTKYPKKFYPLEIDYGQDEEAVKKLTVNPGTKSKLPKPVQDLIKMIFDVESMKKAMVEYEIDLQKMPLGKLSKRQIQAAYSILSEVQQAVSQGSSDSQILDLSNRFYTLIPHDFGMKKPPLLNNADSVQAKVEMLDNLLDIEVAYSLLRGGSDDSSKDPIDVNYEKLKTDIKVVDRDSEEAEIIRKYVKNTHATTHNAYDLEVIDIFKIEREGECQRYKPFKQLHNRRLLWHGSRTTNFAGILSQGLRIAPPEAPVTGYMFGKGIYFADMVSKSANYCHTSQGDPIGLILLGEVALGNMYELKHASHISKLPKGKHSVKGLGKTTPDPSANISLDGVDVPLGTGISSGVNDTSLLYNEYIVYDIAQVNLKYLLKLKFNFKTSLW

For `O=C(c1cc(Cc2n[nH]c(=O)c3ccccc23)ccc1F)N1CCC(O)CC1` [Compound 2a, 4-(4-fluoro-3-(4-hydroxypiperidine-1-carbonyl)benzyl)phthalazin-1(2H)-one], the IC50 (commonly the concentration at which inhibition is half-maximal) is 7 nM. As to `COC1CCN(C(=O)c2cc(Cc3n[nH]c(=O)c4ccccc34)ccc2F)CC1` [Compound 2b, 4-(4-fluoro-3-(4-methoxypiperidine-1-carbonyl)benzyl)phthalazin-1(2H)-one], the IC50 was 5 nM. Take `O=C(c1cc(Cc2n[nH]c(=O)c3ccccc23)ccc1F)N1CCC(Oc2ccc(F)cc2)CC1` [Compound 2c]: the IC50 was found to be 4 nM. With `CCOC1CCN(C(=O)c2cc(Cc3n[nH]c(=O)c4ccccc34)ccc2F)CC1` [Compound 2f, 4-(3-(4-ethoxypiperidine-1-carbonyl)-4-fluorobenzyl)phthalazin-1(2H)-one] the figure was 3 nM; with `O=C(c1cc(Cc2n[nH]c(=O)c3ccccc23)ccc1F)N1CCC(OCC2CC2)CC1` [Compound 2g], 4 nM; with `CC(C)COC1CCN(C(=O)c2cc(Cc3n[nH]c(=O)c4ccccc34)ccc2F)CC1` [Compound 2h], 4 nM. As to `O=C(c1cc(Cc2n[nH]c(=O)c3ccccc23)ccc1F)N1CCC(Oc2ccccn2)CC1` [Compound 2i], the concentration for half-maximal inhibition (IC50) amounted to 4 nM. With `O=C(c1cc(Cc2n[nH]c(=O)c3ccccc23)ccc1F)N1CCC(Oc2ccncc2)CC1` [Compound 2j] the figure was 5 nM; with `O=C(c1cccc(Cc2n[nH]c(=O)c3c(F)ccc(F)c23)c1)N1CCC(OCC2CC2)CC1` [Compound 4a], 13 nM. With `O=C(c1cccc(Cc2n[nH]c(=O)c3c(F)ccc(F)c23)c1)N1CCC(Oc2ccccn2)CC1` [Compound 4b] the figure was 5 nM; with `CC(C)COC1CCN(C(=O)c2cccc(Cc3n[nH]c(=O)c4c(F)ccc(F)c34)c2)CC1` [Compound 4c], 16 nM. With `O=C(c1cc(Cc2n[nH]c(=O)c3ccccc23)ccn1)N1CCC(Oc2ccc(Cl)cc2)CC1` [Compound 6a] the figure was 4 nM; with `O=C(c1cc(Cc2n[nH]c(=O)c3ccccc23)ccn1)N1CCC(Oc2ccc(F)cc2)CC1` [Compound 6b], 7 nM; with `COC1CCN(C(=O)c2cc(Cc3n[nH]c(=O)c4ccccc34)ccn2)CC1` [Compound 6c], 16 nM.

For `O=C(c1cc(Cc2n[nH]c(=O)c3ccccc23)ccn1)N1CCC(Oc2ccccc2)CC1` [Compound 6d], the 50% inhibitory concentration (IC50) is 7 nM. With `O=C(c1cc(Cc2n[nH]c(=O)c3ccccc23)ccn1)N1CCC(Oc2ccncc2)CC1` [Compound 6e] the figure was 10 nM; with `O=C(c1cc(Cc2n[nH]c(=O)c3ccccc23)ccn1)N1CCC(Oc2ccccn2)CC1` [Compound 6f], 8 nM. With `COCCOC1CCN(C(=O)c2cc(Cc3n[nH]c(=O)c4ccccc34)ccc2F)CC1` [Compound 7, 4-(4-fluoro-3-(4-(2-methoxyethoxy)piperidine-1-carbonyl)benzyl)phthalazin-1(2H)-one], the half-maximal inhibitory concentration (IC50) amounted to 8 nM.

As to `COc1cccc(OC2CCN(C(=O)c3cc(Cc4n[nH]c(=O)c5ccccc45)ccc3F)CC2)c1` [Compound 8a, 4-[[4-fluoro-3-[4-(3-methoxyphenoxy)piperidine-1-carbonyl]phenyl]methyl]-2H-phthalazin-1-one], the IC50 is 3 nM. `COc1ccc(OC2CCN(C(=O)c3cc(Cc4n[nH]c(=O)c5ccccc45)ccc3F)CC2)cc1` [Compound 8b, 4-[[4-fluoro-3-[4-(4-methoxyphenoxy)piperidine-1-carbonyl]phenyl]methyl]-2H-phthalazin-1-one]: the 50% inhibitory concentration (IC50) worked out at 2 nM. Consider `CCCOC1CCN(C(=O)c2cc(Cc3n[nH]c(=O)c4ccccc34)ccc2F)CC1` [Compound 8c, 4-[[4-fluoro-3-(4-propoxypiperidine-1-carbonyl)phenyl]methyl]-2H-phthalazin-1-one], for which the IC50 turned out to be 5 nM. Take `COc1ccccc1OC1CCN(C(=O)c2cc(Cc3n[nH]c(=O)c4ccccc34)ccc2F)CC1` [Compound 8d, 4-[[4-fluoro-3-[4-(2-methoxyphenoxy)piperidine-1-carbonyl]phenyl]methyl]-2H-phthalazin-1-one]: the IC50 was determined as 4 nM. With `O=C(c1cc(Cc2n[nH]c(=O)c3ccccc23)ccc1F)N1CCC(OCc2ccccc2)CC1` [Compound 8e, 4-[[4-fluoro-3-(4-phenylmethoxypiperidine-1-carbonyl)phenyl]methyl]-2H-phthalazin-1-one] the figure was 5 nM; with `N#CCc1ccc(OC2CCN(C(=O)c3cc(Cc4n[nH]c(=O)c5ccccc45)ccc3F)CC2)cc1` [Compound 8f, 2-[4-[1-[2-fluoro-5-[(4-oxo-3H-phthalazin-1-yl)methyl]benzoyl]piperidin-4-yl]oxyphenyl]acetonitrile], 2 nM. In the case of `O=C(c1cc(Cc2n[nH]c(=O)c3ccccc23)ccc1F)N1CCC2(CC1)OCc1ccccc12` [Compound 9, 4-(4-fluoro-3-(3H-spiro[isobenzofuran-1,4′-piperidine]-1′-ylcarbonyl)benzyl)phthalazin-1(2H)-one], the IC50 came to 7 nM. Turning to `CC(C)OC1CCN(C(=O)c2cc(Cc3n[nH]c(=O)c4ccccc34)ccc2F)CC1` [Compound 11, 4-(4-fluoro-3-(4-isopropoxypiperidine-1-carbonyl)benzyl)phthalazin-1(2H)-one], the IC50 came out at 4 nM. For the molecule `CC(C)OC1CCN(C(=O)c2cccc(Cc3n[nH]c(=O)c4ccccc34)c2)CC1` [Compound 12], the half-inhibitory concentration (IC50) came to 7 nM. The result for `O=C(c1cc(Cc2n[nH]c(=O)c3ccccc23)ccc1F)N1CCC(OC2CCC2)CC1` [Compound 15, 4-(3-(4-cyclobutoxypiperidine-1-carbonyl)-4-fluorobenzyl)phthalazin-1(2H)-one] reads 10 nM; that for `C=CCOC1CCN(C(=O)c2cc(Cc3n[nH]c(=O)c4ccccc34)ccc2F)CC1` [Compound 16], 6 nM; that for `O=C(c1cc(Cc2n[nH]c(=O)c3ccccc23)ccc1F)N1CCC(OC(F)F)CC1` [Compound 19, 4-(3-(4-(difluoromethoxy)piperidine-1-carbonyl)-4-fluorobenzyl)phthalazin-1(2H)-one], 5 nM. The result for `O=C(c1cc(Cc2n[nH]c(=O)c3ccccc23)ccc1F)N1CCC(OCC2CCCO2)CC1` (centres unmarked) [Compound 20, 4-[[4-fluoro-3-[4-(oxolan-2-ylmethoxy)piperidine-1-carbonyl]phenyl]methyl]-2H-phthalazin-1-one] reads 5 nM; that for `COC1(C)CCN(C(=O)c2cc(Cc3n[nH]c(=O)c4ccccc34)ccc2F)CC1` [Compound 24, 4-[[4-fluoro-3-(4-methoxy-4-methylpiperidine-1-carbonyl)phenyl]methyl]-2H-phthalazin-1-one], 6 nM.

For the molecule `CC(C)OC1CCN(C(=O)c2cc(Cc3n[nH]c(=O)c4ccccc34)ccn2)CC1` [Compound 25, 4-[[2-(4-propan-2-yloxypiperidine-1-carbonyl)pyridin-4-yl]methyl]-2H-phthalazin-1-one], the IC50 turned out to be 7 nM. With `O=C(c1cc(Cc2n[nH]c(=O)c3ccccc23)ccc1F)N1CCC(Oc2ccncn2)CC1` [Compound 26a, 4-(4-fluoro-3-(4-(pyrimidin-4-yloxy)piperidine-1-carbonyl)benzyl)phthalazin-1(2H)-one] the figure was 4 nM; with `Cc1ccc(OC2CCN(C(=O)c3cc(Cc4n[nH]c(=O)c5ccccc45)ccc3F)CC2)nn1` [Compound 26b], 10 nM.
